# Measurements taken from the supplement of paper PMC10037445.
# In all, about 2,900 compounds were measured (“NF-kB SEAP reporter activity, fold change vs agonist alone”: median about 0.99, highest 2% from about 2.6 on). Some of the results follow.
# Legend:
# RAW-Dual [1] = experiment: NF-kB SEAP reporter activity, fold change vs agonist alone; higher = enhanced NF-kB activity
# Procedure, shortened: (§1)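 Library stock was pin-tooled at 50 nL into 384-well plates of RAW-Dual macrophages (50,000 cells/well, DMEM), followed 1 h later by a PRR agonist, and the cells were kept at 37 °C, 5% CO2. Supernatant collected after 20 hours was read for IRF by QuantiLuc luminescence and for NF-κB by QuantiBlue absorbance at 620 nm. Reporter activity is fold change over agonist-alone wells, and a well counted as cytotoxic when its IncuCyte confluency was below 70% of agonist controls in both mask sets.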
# RAW-Dual [2] = experiment: NF-kB SEAP reporter activity, fold change vs agonist alone; cytotoxicity flag (confluency mask): cytotoxic (confluency <70% of control); higher = enhanced NF-kB activity
# Procedure, shortened: as §1
# RAW-Dual [3] = experiment: NF-kB SEAP reporter activity, fold change vs agonist alone; cytotoxicity flag (confluency mask): not cytotoxic; higher = enhanced NF-kB activity
# Procedure, shortened: as §1
# [4] = library stock concentration (final ~1000-fold dilution): 10 mM, cytotoxicity flag (confluency mask): cytotoxic (confluency <70% of control), agonist: Imiquimod (TLR7) […]
# [5] = library stock concentration (final ~1000-fold dilution): 10 mM, cytotoxicity flag (confluency mask): cytotoxic (confluency <70% of control), agonist: MPLA (TLR4) […]
# [6] = agonist: ODN 1826 (TLR9) 0.5 ug/mL
# [7] = agonist: Pam2CSK4 (TLR2/6) 0.1 ug/mL
# [8] = agonist: Pam3CSK4 (TLR2/1) 0.1 ug/mL
# [9] = library stock concentration (final ~1000-fold dilution): 10 mM, cytotoxicity flag (confluency mask): not cytotoxic, agonist: Imiquimod (TLR7) […]
# [10] = library stock concentration (final ~1000-fold dilution): 10 mM, cytotoxicity flag (confluency mask): not cytotoxic, agonist: MPLA (TLR4) […]
smiles,measurement,setting,value
Cc1nc(Nc2cnn(C3CCNCC3)c2)nc2c1N(C)C(=O)c1cc3ccccc3cc1N2C,NF-kB SEAP reporter activity,RAW-Dual [1]; [4],1.56
same,NF-kB SEAP reporter activity,RAW-Dual [1]; [5],2.88
Cc1nc(Nc2cnn(C3CCNCC3)c2)nc2c1N(C)C(=O)c1cc3ccccc3cc1N2C (library stock concentration (final ~1000-fold dilution): 10 mM),NF-kB SEAP reporter activity,RAW-Dual [2]; agonist: LPS (TLR4) 0.1 ug/mL,3.03
same,NF-kB SEAP reporter activity,RAW-Dual [2]; [6],0.387
same,NF-kB SEAP reporter activity,RAW-Dual [2]; [7],1.11
same,NF-kB SEAP reporter activity,RAW-Dual [2]; [8],2.25
NC(=O)c1cnc(NCCc2ccc(O)c(Cl)c2)nc1NCc1ccccc1 (library stock concentration (final ~1000-fold dilution): 10 mM),NF-kB SEAP reporter activity,RAW-Dual [2]; agonist: LPS (TLR4) 0.1 ug/mL,0.411
same,NF-kB SEAP reporter activity,RAW-Dual [2]; [6],0.171
same,NF-kB SEAP reporter activity,RAW-Dual [2]; [7],0.0838
same,NF-kB SEAP reporter activity,RAW-Dual [2]; [8],0.154
NC(=O)c1cnc(NCCc2ccc(O)c(Cl)c2)nc1NCc1ccccc1,NF-kB SEAP reporter activity,RAW-Dual [1]; [4],0.144
same,NF-kB SEAP reporter activity,RAW-Dual [1]; [5],0.251
Oc1ncnc2[nH]ncc12 (library stock concentration (final ~1000-fold dilution): 10 mM),NF-kB SEAP reporter activity,RAW-Dual [3]; agonist: LPS (TLR4) 0.1 ug/mL,1.21
same,NF-kB SEAP reporter activity,RAW-Dual [3]; [6],1.03
same,NF-kB SEAP reporter activity,RAW-Dual [3]; [7],1.1
same,NF-kB SEAP reporter activity,RAW-Dual [3]; [8],1.17
Oc1ncnc2[nH]ncc12,NF-kB SEAP reporter activity,RAW-Dual [1]; [9],0.893
same,NF-kB SEAP reporter activity,RAW-Dual [1]; [10],1.04
COc1ccccc1C(=O)Nc1cc2c(cc1N1CCCC1)n(C)c(=O)n2C,NF-kB SEAP reporter activity,RAW-Dual [1]; [9],1.04
same,NF-kB SEAP reporter activity,RAW-Dual [1]; [10],1.34
COc1ccccc1C(=O)Nc1cc2c(cc1N1CCCC1)n(C)c(=O)n2C (library stock concentration (final ~1000-fold dilution): 10 mM),NF-kB SEAP reporter activity,RAW-Dual [3]; agonist: LPS (TLR4) 0.1 ug/mL,1.58
same,NF-kB SEAP reporter activity,RAW-Dual [3]; [6],1.36
same,NF-kB SEAP reporter activity,RAW-Dual [3]; [7],1.11
same,NF-kB SEAP reporter activity,RAW-Dual [3]; [8],1.05
CC(NC(=Nc1cccc2ncccc12)NC#N)c1ccccc1 (stereo not given) (library stock concentration (final ~1000-fold dilution): 10 mM),NF-kB SEAP reporter activity,RAW-Dual [3]; agonist: LPS (TLR4) 0.1 ug/mL,1.34
same,NF-kB SEAP reporter activity,RAW-Dual [3]; [6],1.07
same,NF-kB SEAP reporter activity,RAW-Dual [3]; [7],1.13
same,NF-kB SEAP reporter activity,RAW-Dual [3]; [8],1.29
CC(NC(=Nc1cccc2ncccc12)NC#N)c1ccccc1 (stereo not given),NF-kB SEAP reporter activity,RAW-Dual [1]; [9],0.897
same,NF-kB SEAP reporter activity,RAW-Dual [1]; [10],1.12
CN1CCN(CC(=O)N2c3ccccc3C(=O)Nc3cccnc32)CC1.Cl.Cl (library stock concentration (final ~1000-fold dilution): 10 mM water),NF-kB SEAP reporter activity,RAW-Dual [3]; agonist: LPS (TLR4) 0.1 ug/mL,1.25
same,NF-kB SEAP reporter activity,RAW-Dual [3]; [6],1.15
same,NF-kB SEAP reporter activity,RAW-Dual [3]; [7],1.16
same,NF-kB SEAP reporter activity,RAW-Dual [3]; [8],1.06
CN1CCN(CC(=O)N2c3ccccc3C(=O)Nc3cccnc32)CC1.Cl.Cl,NF-kB SEAP reporter activity,"RAW-Dual [1]; library stock concentration (final ~1000-fold dilution): 10 mM water, cytotoxicity flag (confluency mask): not cytotoxic, agonist: Imiquimod (TLR7) […]",0.949
same,NF-kB SEAP reporter activity,"RAW-Dual [1]; library stock concentration (final ~1000-fold dilution): 10 mM water, cytotoxicity flag (confluency mask): not cytotoxic, agonist: MPLA (TLR4) […]",1.01
CN1CCN(Cc2ccc(NC(=O)Cc3ccc(Oc4cc(NC(=O)C5CC5)ncn4)cc3)cc2C(F)(F)F)CC1 (library stock concentration (final ~1000-fold dilution): 10 mM),NF-kB SEAP reporter activity,RAW-Dual [2]; agonist: LPS (TLR4) 0.1 ug/mL,0.403
same,NF-kB SEAP reporter activity,RAW-Dual [2]; [6],0.176
same,NF-kB SEAP reporter activity,RAW-Dual [2]; [7],0.0834
same,NF-kB SEAP reporter activity,RAW-Dual [2]; [8],0.142
